{
  "source": "PubChem BioAssay AID485364",
  "about": "(National Center for Advancing Translational Sciences (NCATS), 2010)",
  "note": "“And” between values parts separate entries of the source, which are not always exact repeats. Equal entries are not always repeated. Among all 360,000 compounds or so, about 11,000 (3.1%) were called active. Inconclusive results, whose numbers are uncertain, are shown with a selection of clear calls. The call rests on the fitted dose curve; in most records, active means well fitted inhibition curve with a large enough effect; inconclusive means small, poorly fitted or top-dose-only effect; inactive means no such curve, though single readings can be large or run the other way. No potency is given beside an inconclusive call; the fits are too rough. Potency means the concentration at half of the fitted maximal effect; tags describe the fitted curve by direction and shape.",
  "data": [
    {"target": "Schistosoma mansoni thioredoxin glutathione reductase (TGR) (UniProt Q962Y6)", "experiment": "qHTS Assay for the Inhibitors of Schistosoma Mansoni Peroxiredoxins; further: nearly all actives have a fitted effect of over 60% in size", "details": "purified TGR, DTNB reduction, TNB absorbance 405 nm; series mostly up to 114 µM", "outline": "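TGR 20 nM + NADPH 100 uM (dispensed conc.), cpd preinc 15 min RT; start with NADPH (500 uM addition) then DTNB (15 mM addition). Kinetic TNB absorbance, 405 nm filter. Four-parameter Hill fit across titration.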", "values": [
      {"smiles": "CCOC(=O)c1sc(N)c(C(=O)OCC)c1COC(=O)C1CC(=O)N(Cc2ccco2)C1", "note": "(stereo not given)", "Potency": "active: 39.8 µM"},
      {"smiles": "COc1ccc(OC)c(N2Cc3cc(C)c(C)cc3C2)c1", "Potency": "active: 44.7 µM"},
      {"smiles": "O=C(Cn1cc(S(=O)(=O)N2CCCC2)c(S(=O)(=O)N2CCCC2)c1)NCc1ccco1", "Potency": "inconclusive [inhibitor, partial curve]"},
      {"smiles": "CSc1nsc(SCC(=O)Nc2ccc(C(=O)O)cc2)n1", "Potency": "inactive"},
      {"smiles": "CN(C)/C=C1\\Cc2ccccc2C1=O", "Potency": "inconclusive [inhibitor, full curve, poor fit]"},
      {"smiles": "Cc1sc2nc(SCC(=O)c3cccs3)n(Cc3ccco3)c(=O)c2c1C", "Potency": "inconclusive [inhibitor, partial curve]"},
      {"smiles": "Cc1ccccc1NC(=O)CNc1ccccc1C(=O)NCc1ccco1", "Potency": "inconclusive [inhibitor, partial curve]"},
      {"smiles": "CCCC1C(c2ccccc2)C(C#N)(C#N)C2(C#N)CC1(N)NC2=O", "note": "(stereo not given)", "Potency": "inconclusive [inhibitor, partial curve]"},
      {"smiles": "CN1C(=O)NC(=O)/C(=C/c2ccc([N+](=O)[O-])s2)C1=O", "Potency": "active: 8.91 µM"},
      {"smiles": "CCOc1ccc(CCNC(=O)c2cc3c(s2)-c2c(C)cccc2OC3)cc1", "Potency": "inactive"},
      {"smiles": "CC(C)c1ccc(Nc2nc(NCc3ccco3)nc(N3CCOCC3)n2)cc1", "Potency": "inactive"},
      {"smiles": "CN1C(=O)C(O)(CC(=O)c2ccncc2)c2ccccc21", "note": "(stereo not given)", "Potency": "inconclusive [inhibitor, partial curve]"},
      {"smiles": "CCOc1ccc(-c2nnc(SCC(=O)c3ccc(Br)cc3)n2-c2ccccc2)cc1", "Potency": "inconclusive [inhibitor, single point]"},
      {"smiles": "CCN(CC)C(=O)CC1(c2ccccc2OC)CCOC(C(C)C)C1", "note": "(stereo not given)", "Potency": "inconclusive [inhibitor, full curve, poor fit]"},
      {"smiles": "O=C(CSc1nnc(-c2ccco2)n1CC1CCCO1)c1ccc(F)cc1", "note": "(stereo not given)", "Potency": "inconclusive [inhibitor, single point]"},
      {"smiles": "C#CCOCCOCCOCCNc1nc(N2CCN(C(=O)CCCCCCCCCCNC(=O)[C@H](CCCCN)n3cc(C)nn3)CC2)nc(N2CCN(C(=O)CCCCCCCCCCNC(=O)[C@H](CCCCN)n3cc(CCCC(=O)O)nn3)CC2)n1", "Potency": "inconclusive [inhibitor, partial curve]"},
      {"smiles": "COc1cc(C)ccc1OCc1cc(C(=O)N2C[C@H]3CC[C@H]2C3)no1", "Potency": "inconclusive [inhibitor, partial curve, poor fit]"},
      {"smiles": "O=C1C(Cl)=C(NCC2CCCO2)C(=O)N1CCc1ccccc1", "note": "(stereo not given)", "Potency": "inconclusive [inhibitor, full curve]"},
      {"smiles": "Cc1ccc(CN2CCC(CNS(=O)(=O)c3ccc(-c4ccc(=O)[nH]n4)s3)CC2)cc1", "Potency": "inconclusive [inhibitor, single point]"},
      {"smiles": "O=C(Nc1cccc(C(F)(F)F)c1)c1ccc2snnc2c1", "Potency": "inconclusive [inhibitor, single point]"},
      {"smiles": "OCCC1CN(Cc2cc(F)ccc2-n2cccn2)CCN1Cc1ccc(F)cc1", "note": "(stereo not given)", "Potency": "inconclusive [inhibitor, partial curve]"},
      {"smiles": "O=C1CC(O)(c2ccccc2)C(c2ccccc2)=C1c1ccccc1", "note": "(stereo not given)", "Potency": "inactive"},
      {"smiles": "O=C(OCC#CCSc1nnc(-c2ccc(Br)cc2)o1)c1ccco1", "Potency": "inconclusive [inhibitor, full curve]"},
      {"smiles": "FC(F)Oc1ccc(NC(=S)NCc2cccnc2)cc1", "Potency": "inconclusive [inhibitor, full curve]"},
      {"smiles": "CCc1cc2c(COC(=O)CCNS(=O)(=O)c3cccc(C(F)(F)F)c3)cc(=O)oc2cc1O", "Potency": "inactive"},
      {"smiles": "CSc1ccccc1NC(=O)C1CCN(S(C)(=O)=O)CC1", "Potency": "inconclusive [inhibitor, full curve, poor fit]"},
      {"smiles": "CC(C)(CNC(=O)CCNC(=O)c1ccc(Br)cc1)N1CCOCC1", "Potency": "inactive"},
      {"smiles": "CCc1nnc(NC(=O)CSc2nnc(C3CCCCC3)n2-c2ccccc2)s1", "Potency": "inconclusive [inhibitor, partial curve, poor fit]"},
      {"smiles": "Oc1ccc2ccccc2c1CNn1cnnc1", "Potency": "inconclusive [inhibitor, partial curve, poor fit]"},
      {"smiles": "O=c1[nH]c2ccc(NS(=O)(=O)c3ccc([N+](=O)[O-])cc3)cc2[nH]1", "Potency": "inconclusive [inhibitor, partial curve]"},
      {"smiles": "O=C(Cc1ccccc1)NNC(=O)c1cccs1", "Potency": "inconclusive [inhibitor, full curve, poor fit]"},
      {"smiles": "CC(C)NC(=O)C1CCN(c2ccc(S(=O)(=O)N3CCOCC3)cc2Cl)CC1", "Potency": "inactive"},
      {"smiles": "Cc1ccc(NNS(=O)(=O)c2ccc(C)cc2)cc1", "Potency": "active: 7.94 µM"},
      {"smiles": "O=C(Nc1nc2c(s1)CN(Cc1ccccc1)CC2)c1c(F)cccc1F", "Potency": "inconclusive [inhibitor, full curve]"},
      {"smiles": "O=C(CN1C(=O)C2CCCCC2C1=O)OCn1nnc2ccccc2c1=O", "note": "(stereo not given)", "Potency": "inconclusive [inhibitor, partial curve]"},
      {"smiles": "COC(=O)c1nc(NC(=O)c2ccccc2)n[nH]1", "Potency": "inconclusive [inhibitor, full curve]"},
      {"smiles": "COc1ccc(C(=O)NCCCSC)cc1OC1CCN(C(C)C)CC1", "Potency": "inconclusive [inhibitor, partial curve]"},
      {"smiles": "O=C(OC1CCOC1=O)c1ccccc1C(=O)c1ccc(Cl)c([N+](=O)[O-])c1", "note": "(stereo not given)", "Potency": "active: 25.1 µM"},
      {"smiles": "COc1ccc(S(=O)(=O)NCc2ccco2)cc1-c1nnc2c3ccccc3c(C)nn12", "Potency": "active: 56.2 µM"},
      {"smiles": "COc1cccc(C(=O)N2CCN(Cc3cc(Br)ccc3OC)CC2)c1", "Potency": "inactive"},
      {"smiles": "Oc1ccc(C2Nc3cccc4cccc(c34)N2)c(O)c1", "Potency": "active: 50.1 µM"},
      {"smiles": "CN(NC(=O)c1ccc(Cl)cc1)c1nc(-c2ccccc2)nnc1C(F)(F)F", "Potency": "inactive"},
      {"smiles": "CCCCN(C(=O)/C=C/c1ccco1)c1c(N)n(CCC)c(=O)[nH]c1=O", "Potency": "inconclusive [inhibitor, partial curve]"},
      {"smiles": "Cc1cc2c(NCc3ccccc3)ncnc2s1", "Potency": "inactive"},
      {"smiles": "CCOC(=O)CC1=C(C(=O)OCC)C(c2ccc(C)o2)C(C#N)=C(N)O1", "note": "(stereo not given)", "Potency": "inconclusive [inhibitor, partial curve]"},
      {"smiles": "O=C(CO/N=C/c1ccc(OC(F)F)cc1)NCc1ccco1", "Potency": "inconclusive [inhibitor, partial curve]"},
      {"smiles": "Cc1ccc(-c2nc(CS(=O)CC(=O)NCc3ccc(Cl)cc3)c(C)o2)cc1", "note": "(stereo not given)", "Potency": "inconclusive [inhibitor, partial curve]"},
      {"smiles": "O=C(C1=C[C@@H](c2ccc(C(F)(F)F)cc2)C[C@@H](OCc2ccc(CO)cc2)O1)N1CCOCC1", "Potency": "inconclusive [inhibitor, partial curve]"},
      {"smiles": "Cc1cc(NC(=O)CS(=O)(=O)c2cn(C)c3ccccc23)no1", "Potency": "active: 28.2 µM"},
      {"smiles": "CN(C)c1ccc(CNC(=O)C2CCN(c3nc4ccccc4[nH]3)CC2)cc1", "Potency": "inactive"},
      {"smiles": "Cc1ccc(C2OC34CCCCCC3C(C#N)(C(=N)O4)C2(C#N)C#N)cc1", "note": "(stereo not given)", "Potency": "inconclusive [inhibitor, partial curve]"},
      {"smiles": "COc1ccccc1/C=C/C(=O)NCC(=O)N/N=C(/C)c1ccc(Cl)cc1", "Potency": "inactive"},
      {"smiles": "CCc1ccc(-n2cc(-c3ccc([N+](=O)[O-])cc3)[nH]c2=S)cc1", "Potency": "inactive"},
      {"smiles": "C=CCCC(=O)N1CCCC(Cc2cccc(Cl)c2)(C(=O)OCC)C1", "note": "(stereo not given)", "Potency": "inconclusive [inhibitor, single point]"},
      {"smiles": "CN1CCCCCC1C(=O)N1CCC(N2CCC(C(=O)N3CCOCC3)CC2)CC1", "note": "(stereo not given)", "Potency": "inconclusive [inhibitor, partial curve]"},
      {"smiles": "Cc1ccc(C)c(NC(=O)CN2CCSc3ccc(S(=O)(=O)N4CCCC4)cc32)c1", "Potency": "inactive"},
      {"smiles": "CC(C)C(O)(C#CCN1CCCC1)c1ccccc1", "note": "(stereo not given)", "Potency": "inconclusive [inhibitor, partial curve]"},
      {"smiles": "Cc1ccccc1OCCn1cc(C(=S)N2CCN(C)CC2)c2ccccc21", "Potency": "inactive"},
      {"smiles": "Cc1cc(NC(=O)/C=C\\C(=O)O)c([N+](=O)[O-])cc1C", "Potency": "inconclusive [inhibitor, partial curve]"},
      {"smiles": "COc1ccc(-n2ncc3c(NCC4CCCO4)ncnc32)cc1", "note": "(stereo not given)", "Potency": "inactive"},
      {"smiles": "O=C(O)C1C2C=CC(O2)C1C(=O)NCc1ccc2c(c1)OCO2", "note": "(stereo not given)", "Potency": "inconclusive [inhibitor, partial curve]"},
      {"smiles": "CCN(CC)CCOC(=O)c1ccc(NC(=O)c2cc3c(=O)n(CC)c4ccccc4c3s2)cc1", "Potency": "inactive"},
      {"smiles": "COc1ccccc1C1c2c(-c3ccc(Cl)cc3)n[nH]c2C(=O)N1c1ccc(C)cc1", "note": "(stereo not given)", "Potency": "inactive"},
      {"smiles": "CN(Cc1cccs1)C(=O)Cc1csc(-c2ccccc2)n1", "Potency": "inactive"},
      {"smiles": "Cc1ccc(Nc2nc(NCc3ccco3)c3ccccc3n2)cc1", "Potency": "inconclusive [inhibitor, single point]"},
      {"smiles": "COc1ccc2[nH]c(=O)c(C(c3nnnn3CC3CCCO3)N3CCc4ccccc4C3)cc2c1", "note": "(stereo not given)", "Potency": "inconclusive [inhibitor, partial curve]"},
      {"smiles": "N#CC1=C(N)Oc2c(oc(CO)cc2=O)C1c1cccs1", "note": "(stereo not given)", "Potency": "inconclusive [inhibitor, partial curve]"},
      {"smiles": "CN(c1ccccc1)S(=O)(=O)c1ccc(NC(=O)c2nc(S(C)(=O)=O)ncc2Cl)cc1", "Potency": "active: 1.58 µM and active: 1.26 µM"},
      {"smiles": "CCOC(=O)C(C)Oc1c(Br)cc(C2NC(=O)NC(C)=C2C(C)=O)cc1OCC", "note": "(stereo not given)", "Potency": "inactive"},
      {"smiles": "COc1ccc(CNc2nc(-c3ccco3)nn2S(=O)(=O)c2ccc(Cl)cc2)cc1OC", "Potency": "inconclusive [inhibitor, partial curve]"}
    ]}
  ]
}
